Variants at the floor of the assay are shown more often than the library holds them.
B1: TPR 5TU (parent)
chain: GGAUCUUCUCGAUCUAACAAAAAAGACAAAUCUGCCACAAAGCUUGAGAGCAUCUUCGGAUGCAGAGGCGGCAGCCUUCGGUGGCGCGAUAGCGCCAACGUUCUCAACUAUGACACGCAAAACGCGUGCUCCGUUGAAUGGAGUUUAUCAUG

Variants of: B1
Assay: polymerase ribozyme fitness, log enrichment relative to wild type (log ratio); higher = more active; in vitro selection for triplet polymerase activity
Method in brief: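 Fitness measures genotype enrichment against wild-type enrichment on a logarithmic scale, with inverse-variance-weighted averaging of replicates. The logarithm is base 2, and genotypes were kept only with ≥10 input reads and ≥1 read per output in Illumina sequencing. The sequenced libraries came from one triplicate in vitro selection round, including frozen incubation at −7 °C, of PCR-built, transcribed mutant libraries of each subunit of a heterodimeric triplet polymerase ribozyme.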

Polymerase ribozyme fitness (log ratio), ≤ -4.2:
A29U A40U C76G G86A G140A U145C
A29G C38A C63G G67C C79A C93A
A29C C36A U55A U61G C87A A121U
A28U G143C
A29U A41C G62U A64C G65A A66C A73C C79A C95U
A29U C87U C96U A113U G141U
A29U A52G U55G G65A G67U C96A
A29G A39C C69G G83A G86C A97U A120G
A29U A37U G46C C85G G117C
A28U A41C A60C A91G
A28U A47G A64U C76U G83U A119U C129G G136U
A29U A64U G83A C95A C123A G143C
A28U U61A G65A G68C G81A C114U A150U
A29U C32U A89C G100C A106G
A28U G62A C132A
A28U C35U C96U U135A G136A G143C
A29U C54U A91G A97C A110U G124U C125U
A29U G42U A49C G70C G92A C103U C108G
A29C G71C A106C A110C
A29C U53A A66U C85G A107U
A29U C54G G86C
A29U A73G C95U A142G G152U
A29G A49C C75A C85A C125A U135G A147G U148G
A29C C57U C79U C87A C129U
A29C C51U U78G
A29G G80C C93G G128U U145C
A29G U55A U144G
A28U A41G C93U A115U
A29C U77G U78G G94A
A28G C51G C54A G88C C95G C131A
A28G C54U A73G G80A U144A U145C
A29U A40G A49C C57U U77G G83C U111A A115G
A29G C35U A47C U82G A91U G92C A107U C131U
A29U U31A A60G C63A C93U A97C G126U
A29U G62U C63A A89U U111G U145A
A29U G58C G70C C99G A120G
A28U U31G G50A U56A C72U C85U C118G
A28U G124A A142C U148G
A28U U44A C75G C93A C99U C123A
A28G G68A C75U
A29G A41U U77G U90G G141A U145G
A29C G71A C96G C116U U139C
A28G A52G A110G G124A
A29C C32G C54A U82A C96A A150G
A28G C76G C79A C149G
A29U C51G C95U C103G
A29C G92C U151C
A28U C87U
A29G A41C C76G
A28U C43U A73G C85A C118A
A28U G42U C79A C95U U101G C131G
A29G G59A A60U A64C C79A C131G G152U
A29C A37G A89G G143C
A29U A52C C114G
A29U C85A C96U
A29U C38U U90A A120U U135G G143U
A28U C35G U45A A66C C79A C87U C129A U135G
A29U U33A G84U A89G U135A
A29C G80A C85G U148A
A28G C108U A122G A138G
A28G C75A G81C G92U C114A A115U G128A
A29C U56C A91U G100A
A29U A73U C95A A113U C125U G143C
A28G A91G G112U
A28U G70A G81C A120G
A28G C36U C69G A142U
A28U U55A G84U A89U
A28U A37C U53A U55A C75U C79G C95G C105U G141U
A28G U31G U56G C95U U101G G136A A147G
A29C A49C C63G G88U U109C G143C
A28U C38G U53A C87U C118G G141C
A29C C57A C87U
A29C C57U C125G G141U
A29U C76A G117C
A29U G48C A60C C93G
A29C U31A U56A U77G C93G G136U
A29U U33A C72U C87G G152A
A28G A47G C51G G70A C93G A107C G117U A120C
A29G C43A G50C U82A A91C C125U
A28U C32G A41C U61A G62C G70C C76A C105U C125A G133A
A29U G68U G84U C87A
A28U U55A G58C G65A
A29G A52G C85G G94C
A28U A30C A40C A41C G59C G80C G94A C95G G100A A137G
A29C C36A A49G C51U C57A G124A
A28U G92C U144A
A29U A37U A73G A138G G143C
A29G C35U G84U C103G
A28U C95U C99A A107G
A29G U45G G58A C76G C87U C99A U139C G140U
A28U U31C U45A A49C A66G C87U U101A U139A
A29U G59A C85A
A29G A41C G42A C51G C54U G59C G83A G92U A150C
A29U A39C A66C C76U U82A A91C C105U A120C
A28G C54U A98U C118U G133U
A29C U53G A60U G80A C87G A119G C125A C132G
A28G C57U A121U
A29U A40C U77C G88A A137C
A29C C36G G83U G84A G92C C96U
A29C C32U C35G U56A A60U C105G
A28U A37C U53G C79A U101G C114G
A29G A41C U55A C57U G59C A64U A119U U144A U151A
A29U G59C C85A C103U U134A A138C
A29U G58A C93U U127C
A29U G62C G86A C96G
A29U A47C A91G C99U C108A G117A
A29C C51A A52C C95A C118G U139G G143C
A28U A41C G67U U78A G88A C96G A107U G117C G143A
A29U C75U C95A A107U
A29U U33A U55A A66C C99G U102G A142G A150G
A28U C96A A150C
A29C A39C C79U U90C A91U
A29C C76G
A28U G46A G68A C79G G92A C108A A119U A150C
A28G C57A C85U A98G A137U
A28G G34C
A29U U53A A91G A97C G126A
A28G A52C G62C C85A G86U A106G G117A G136U U148A
A29U G46A U56A G68U G84A U148C
A28U A66G G112C G141A
A29U C38U U44G A60C C95U U102G U148A
A28U C35U C85A G143U
A29C G42C G92U U104G U130G G143A
A29U A39U C57U A66C G67A G84A A91G C105G U111G
A29G A47C U61A U82G C108A
A29G C93U C95G C96U
A28U A37C A41C G42C C57G C87G C93G C95G C103A A113G U139A G141A
A29U A41U G88C C99U A142G
A28U G59U C87G A115G G133U
A28G U77A C95U
A29U G86U A91G
A29U G94C C95U U135A
A28G A47G U56C C79A U102C C103A U109G C114U G128A
A29G U53C G68C C76U G86U G136A
A28U A29G C57U G88U A138U U145C
A29U G58C G81C A91U
A29C A37U G42C U56G G84A C129A U145C
A28U C38U A39U C57U
A29C A39U U61G C76U C85G C105G C125U
A29G A41C G42U C72G U101G C114A A120G G140U
A28G A41C G81A C95G
A29C U53A U55A U56A A73G C96A C118A G126A G141A
A29C C96G G133C
A29C A40C C93A A150U
A28U A73G C87U C125A U134C U144G
A29G A30U G46C C105U A122G U135G A150C
A29U G86U
A29U A60G U90G U145G
A28U C85U C103A G128A
A28U C32G U53A G59A A89U C96U A138G
A29U A40G C79G G80A G83U A142U
A28U C54U C85A G88A A115U G141U C149U
A29C A40C A52G U61A
A28U G83C U134G
A29U A97U
A28U G50A C57A A64C C75U G88U C95A
A29G G62U U82C
A28G A47U A60G C85A C87G C116A G141C
A28U A29G G48A G65U U90C C116G A137C
A29U A40U U56A C69A U82A A89G C96U C105U G140U
A28G G50A G88C C132U
A29G U56G G68A U90C A98U A106G C114A U127A G152U
A28G C69U G70C G80C U127G
A28G G84U C118G
A29G G84U U134C
A28U A49C C85U
A28U C54A U56G A73C G94U A98U C105U A121C U139A A147C
